What all share (experiment): Viability of human cancer cell lines after 72 h of drug (GDSC screen)
Compound in one test: CC(=O)O[C@@]12CO[C@@H]1C[C@H](O)[C@@]1(C)C(=O)[C@H](O)C3=C(C)[C@@H](OC(=O)[C@H](O)[C@@H](NC(=O)OC(C)(C)C)c4ccccc4)C[C@@](O)([C@@H](OC(=O)c4ccccc4)[C@H]21)C3(C)C [Docetaxel]
The note with it: top dose 0.0125 µM. As to the method:
(§1)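 Human cancer cell lines in 384-well plates, medium with 10% serum, drug for 72 h over a 256-fold dose range (nine 2-fold or five 4-fold steps up to the top dose). Adherent lines were fixed and stained with the nucleic acid dye Syto60, suspension lines read with resazurin; signal relative to control wells, capped at 0 and 100%. One two-parameter sigmoid per drug and line, fitted in a mixed model over all curves with the slope shared within a line.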

Compound in a further test: CC1(C)CNc2cc(NC(=O)c3cccnc3NCc3ccncc3)ccc21 [AMG-706]
To be noted: top dose 2 µM; top dose inferred. The protocol: as §1

Compound in another test: CCOc1nc(NC(=O)Cc2cc(OC)ccc2OC)cc(N)c1C#N [JNK Inhibitor VIII]
The note with it: top dose 10 µM; top dose inferred. The protocol: as §1

Compound in the next test: CN1CCN(c2ccc([N+](=O)[O-])c3no[n+]([O-])c23)CC1 [NSC-207895]
The note with it: top dose 20 µM; top dose inferred. As to the method:
as §1

Compound in the next test: COC(=O)[C@H](CCSC)NC(=O)c1ccc(NC[C@@H](N)CS)cc1-c1ccccc1 [FTI-277]
The note with it: top dose 1.024 µM; top dose inferred. As to the method:
as §1

Compound in another test: COCC[n+]1c2c(n(Cc3cnccn3)c1C)C(=O)c1ccccc1C2=O [YM155]
To be noted: top dose 5.12 µM. The protocol:
as §1

Compound in the next test: C[C@]1(O)C[C@@H](c2nc(-c3ccc4ccc(-c5ccccc5)nc4c3)c3c(N)nccn32)C1 [OSI-906]
To be noted: top dose 2.56 µM; top dose inferred. The protocol:
as §1

Compound in the next test: Cc1ccc(C(=O)N(CCCN)[C@@H](c2nc3cc(Cl)ccc3c(=O)n2Cc2ccccc2)C(C)C)cc1 [SB-715992]
To be noted: top dose 0.128 µM; top dose inferred. The protocol:
as §1

Compound in another test: Cc1sc2c(c1C)C(c1ccc(Cl)cc1)=N[C@@H](CC(=O)OC(C)(C)C)c1nnc(C)n1-2 [JQ1]
The protocol: as §1

Compound in another test: O=C(/C=C/c1cccc(S(=O)(=O)Nc2ccccc2)c1)NO [Belinostat]
To be noted: top dose 20 µM; top dose inferred. The protocol:
as §1

Compound in another test: c1ccc2c(CCNc3ccc(Nc4ccncc4)cc3)c[nH]c2c1 [JNJ-26854165]
To be noted: top dose 10 µM. The protocol: as §1

Where [1] appears, read: top dose 1 µM, screen: GDSC drug entry 1218, top dose inferred.
The mark [2] stands for this setting: top dose 2.56 µM, screen: GDSC drug entry 163.

A lower IC50 marks a more sensitive line; where the fit passes the top or lowest dose, that dose stands as a limit. The AUC spans the tested range (256-fold, ending at the top dose) of the same fit; values near 1 show little effect. For part of these data: An inferred top dose comes from the curve model; the source does not state it. For part of these data: An entry number marks a drug with two screens in the source, which often give different values.

For SW620 (large intestine, adherent), the AUC with Docetaxel was found to be 0.811; with AMG-706 it was 0.99; with JNK Inhibitor VIII, 0.988; in the test with NSC-207895, 0.973; in the test with FTI-277, 0.988; with YM155, 0.025. Also, the AUC with OSI-906 came out at 0.95; with SB-715992, 0.76; with JQ1 (setting [1]), 0.989; in the test with JQ1 (setting [2]), 0.875; with Belinostat, 0.359; in the test with JNJ-26854165 it was 0.961. In addition, the IC50 with Docetaxel was 5.7 nM; with AMG-706, more than 2000 nM; with JNK Inhibitor VIII, more than 10000 nM; with NSC-207895 it was more than 20000 nM; with FTI-277, more than 1020 nM; with YM155, less than 20 nM. The half-inhibitory concentration (IC50) with OSI-906 is more than 2560 nM; in the test with SB-715992 it was 40.3 nM; with JQ1 (setting [1]), more than 1000 nM; in the test with JQ1 (setting [2]), 2020 nM; with Belinostat it was 535 nM; in the test with JNJ-26854165 it was more than 10000 nM.
With SW756 (cervix, adherent), the AUC with Docetaxel is 0.626; in the test with AMG-706, 0.888; with JNK Inhibitor VIII, 0.904; with NSC-207895 it was 0.833; with FTI-277 it was 0.985; with YM155 it was 0.043. Further, the AUC with OSI-906 came to 0.982; in the test with SB-715992 it was 0.983; in the test with JQ1 (setting [1]), 0.933; in the test with JQ1 (setting [2]), 0.893; in the test with Belinostat, 0.704; with JNJ-26854165, 0.863. The IC50 was 1.87 nM in the test with Docetaxel; more than 2000 nM with AMG-706; more than 10000 nM in the test with JNK Inhibitor VIII; 16500 nM with NSC-207895; more than 1020 nM in the test with FTI-277; less than 20 nM with YM155. For the same cell line, the IC50 with OSI-906 is more than 2560 nM; with SB-715992, more than 128 nM; in the test with JQ1 (setting [1]) it was more than 1000 nM; in the test with JQ1 (setting [2]) it was more than 2560 nM; with Belinostat, 5310 nM; with JNJ-26854165, more than 10000 nM.
Consider SW780 (bladder, adherent), for which the AUC with Docetaxel amounted to 0.529; with AMG-706, 0.963; with JNK Inhibitor VIII, 0.955; with NSC-207895 it was 0.986; with FTI-277, 0.959; with YM155, 0.602. Besides, the AUC with OSI-906 turned out to be 0.986; with SB-715992, 0.972; with JQ1 (setting [1]), 0.944; with JQ1 (setting [2]), 0.745; with Belinostat it was 0.944; with JNJ-26854165, 0.829. For the same cell line, the 50% inhibitory concentration (IC50) is 0.943 nM in the test with Docetaxel; more than 2000 nM with AMG-706; more than 10000 nM with JNK Inhibitor VIII; more than 20000 nM with NSC-207895; more than 1020 nM with FTI-277; 626 nM with YM155. Besides, the IC50 in the test with OSI-906 is more than 2560 nM; with SB-715992, more than 128 nM; with JQ1 (setting [1]) it was more than 1000 nM; with JQ1 (setting [2]), 867 nM; with Belinostat it was more than 20000 nM; with JNJ-26854165, 7020 nM.
For the cell line SW948 (large intestine, adherent), the AUC came to 0.949 with Docetaxel; 0.982 with AMG-706; 0.981 in the test with JNK Inhibitor VIII; 0.972 with NSC-207895; 0.982 with FTI-277; 0.878 with YM155. The AUC is 0.97 in the test with OSI-906; 0.947 in the test with SB-715992; 0.979 with JQ1 (setting [1]); 0.81 with JQ1 (setting [2]); 0.46 in the test with Belinostat; 0.965 with JNJ-26854165. In addition, the IC50 with Docetaxel is more than 12.5 nM; in the test with AMG-706, more than 2000 nM; with JNK Inhibitor VIII, more than 10000 nM; with NSC-207895, more than 20000 nM; with FTI-277, more than 1020 nM; in the test with YM155, more than 5120 nM. Moreover, the IC50 with OSI-906 was more than 2560 nM; in the test with SB-715992 it was more than 128 nM; with JQ1 (setting [1]) it was more than 1000 nM; with JQ1 (setting [2]), 2220 nM; in the test with Belinostat, 925 nM; with JNJ-26854165, more than 10000 nM.
For the cell line “SW1271 (small cell lung carcinoma, adherent)”, the AUC in the test with Docetaxel is 0.752; with AMG-706, 0.984; in the test with JNK Inhibitor VIII, 0.984; in the test with NSC-207895, 0.837; in the test with FTI-277 it was 0.939; in the test with YM155, 0.037. Also, the AUC with OSI-906 was found to be 0.97; with SB-715992, 0.926; with JQ1 (setting [1]) it was 0.955; with JQ1 (setting [2]) it was 0.779; with Belinostat it was 0.452; with JNJ-26854165, 0.928. Besides, the IC50 in the test with Docetaxel is 4.71 nM; with AMG-706 it was more than 2000 nM; in the test with JNK Inhibitor VIII it was more than 10000 nM; with NSC-207895, 16400 nM; with FTI-277 it was more than 1020 nM; with YM155, less than 20 nM. Moreover, the IC50 with OSI-906 was more than 2560 nM; with SB-715992 it was more than 128 nM; with JQ1 (setting [1]), more than 1000 nM; with JQ1 (setting [2]) it was 1210 nM; in the test with Belinostat it was 908 nM; with JNJ-26854165 it was more than 10000 nM.

One may read the IC50 as the concentration at which inhibition is half-maximal.

The values are drawn from the supplement of paper PMC4967469.
